The list shows a part of the results.

The experiment deals with HSkMC (human skeletal muscle cells). The experiment in a line: cytotoxicity call (relative viability < 0.9). The conditions noted are these: 10 µM.
With `C[C@@H]1CN([C@@H](C)CO)S(=O)(=O)c2ccc(C#C[C@@H](C)O)cc2O[C@@H]1CN(C)C`, the cytotoxicity call was “inactive”.

On to `C[C@H](CO)N1C[C@H](C)[C@@H](CN(C)Cc2ccncc2)OCCCC[C@H](C)Oc2ccc(NC(=O)Nc3ccccc3)cc2C1=O`, for which the cytotoxicity call is “inactive”.

Take `Cc1ccc(S(=O)(=O)N(C)C[C@@H]2OCCCC[C@H](C)Oc3ccc(NS(=O)(=O)c4ccc(F)cc4)cc3C(=O)N([C@@H](C)CO)C[C@@H]2C)cc1`: the cytotoxicity call is “inactive”.

Turning to `Cc1noc(C)c1S(=O)(=O)Nc1cccc2c1O[C@H](CN(C)S(=O)(=O)c1ccc(F)cc1)[C@H](C)CN([C@H](C)CO)C2=O`, the cytotoxicity call is “inactive”.

`CCOC(=O)CCCCCC(=O)Nc1ccc2c(c1)C(=O)N([C@H](C)CO)C[C@@H](C)[C@@H](CN(C)S(=O)(=O)c1ccc(Cl)cc1)OCCCC[C@H](C)O2`: the cytotoxicity call was “inactive”.

For `C[C@@H]1CN([C@@H](C)CO)C(=O)c2cc(NC(=O)Nc3ccc4c(c3)OCO4)ccc2O[C@H]1CN(C)C(=O)Nc1ccc(C(F)(F)F)cc1`, the cytotoxicity call was “inactive”.

Consider `Cc1ccc(S(=O)(=O)N(C)C[C@@H]2Oc3c(NC(=O)C4CC4)cccc3C(=O)N([C@@H](C)CO)C[C@H]2C)cc1`, for which the cytotoxicity call is “inactive”.

`COc1ccc(NC(=O)Nc2ccc3c(c2)C(=O)N([C@@H](C)CO)C[C@@H](C)[C@@H](CN(C)Cc2ccc(Cl)c(Cl)c2)OCCCC[C@H](C)O3)cc1`: the cytotoxicity call is “inactive”.

As to `CNCCC=C1c2ccccc2CCc2ccccc21.Cl`, the cytotoxicity call is “inactive”.

In the case of `COc1ccc(S(=O)(=O)N(C)C[C@H]2Oc3c(NS(=O)(=O)c4ccccc4)cccc3C(=O)N([C@@H](C)CO)C[C@H]2C)cc1`, the cytotoxicity call is “inactive”.

As to `CN(C)CC(=O)N[C@H]1CC[C@H](CCNS(=O)(=O)c2ccccc2)O[C@H]1CO`, the cytotoxicity call was “inactive”.

On to `C[C@@H]1CN([C@H](C)CO)C(=O)c2cc(NC(=O)Nc3ccccc3)ccc2O[C@H]1CN(C)C(=O)Nc1cccc2ccccc12`, for which the cytotoxicity call was “inactive”.

As for `COCC(=O)Nc1ccc2c(c1)OC[C@H](C)N(Cc1ccccc1OC)C[C@@H](C)[C@@H](OC)CN(C)C2=O`, the cytotoxicity call is “inactive”.

As to `COCCNC(=O)C[C@H]1CC[C@@H]2[C@H](COc3ccc(NC(=O)Nc4cccc(F)c4)cc3C(=O)N2C)O1`, the cytotoxicity call was “inactive”.

For `COc1cccc(N2CCN(C3=Nc4c(F)cccc4[C@H](CC(=O)O)N3c3cc(C(F)(F)F)ccc3OC)CC2)c1`, the cytotoxicity call was “inactive”.

Take `COc1ccc(-c2cc(=O)c3c(OC)c(OC)c(OC)cc3o2)cc1OC`: the cytotoxicity call is “inactive”.

`C[C@@H]1CN([C@@H](C)CO)S(=O)(=O)c2ccc(C#Cc3ccc(F)cc3)cc2O[C@H]1CN(C)S(=O)(=O)c1ccc(F)cc1`: the cytotoxicity call is “inactive”.

As to `O=C(C[C@H]1CC[C@H]2[C@@H](COC[C@H](O)CN2S(=O)(=O)c2ccccc2)O1)NCc1ccc2c(c1)OCO2`, the cytotoxicity call was “inactive”.

Consider `C[C@@H]1CN([C@@H](C)CO)C(=O)c2cc(NC(=O)Cc3ccccc3)ccc2O[C@@H](C)CCCCO[C@@H]1CN(C)Cc1ccc2c(c1)OCO2`, for which the cytotoxicity call is “inactive”.

As to `Cc1ccc(S(=O)(=O)Nc2ccc3c(c2)CC(=O)N([C@H](C)CO)C[C@H](C)[C@H](CN(C)Cc2ccc(Cl)c(Cl)c2)O3)cc1`, the cytotoxicity call is “active”.

On to `COc1ccc(S(=O)(=O)Nc2cccc3c2O[C@H](CN(C)C(=O)Nc2c(C)noc2C)[C@@H](C)CN([C@@H](C)CO)C3=O)cc1`, for which the cytotoxicity call is “inactive”.

In the case of `Cc1noc(C)c1S(=O)(=O)Nc1ccc2c(c1)CC(=O)N([C@H](C)CO)C[C@@H](C)[C@@H](CN(C)S(=O)(=O)c1c(C)noc1C)O2`, the cytotoxicity call is “inactive”.

For the compound `O=C(O)CCCCCCCC(=O)O`, the cytotoxicity call is “inactive”.

For the compound `C[C@@H]1CCCCO[C@@H](CN(C)Cc2ccc3c(c2)OCO3)[C@H](C)CN([C@H](C)CO)C(=O)c2cc(NC(=O)c3ccccc3)ccc2O1`, the cytotoxicity call was “inactive”.

As for `COc1cccc(S(=O)(=O)Nc2ccc3c(c2)[C@H]2C[C@H](CC(=O)N4CCCCC4)O[C@@H](CO)[C@H]2O3)c1`, the cytotoxicity call is “inactive”.

For the compound `CC1(C)OC(=O)C2(C(=O)O1)[C@@H](c1ccc(Br)cc1)CC(=O)C[C@H]2c1ccc(Br)cc1`, the cytotoxicity call was “inactive”.

For the compound `CCN(CC)CC#CCOC(=O)C(O)(c1ccccc1)C1CCCCC1.Cl` (centres undefined), the cytotoxicity call is “inactive”.

Consider `C[C@H](CO)N1C[C@H](C)[C@H](CN(C)S(=O)(=O)c2ccc(F)cc2)OCCCC[C@H](C)Oc2ccc(NS(C)(=O)=O)cc2C1=O`, for which the cytotoxicity call was “inactive”.

Consider `C[C@@H]1CCCCO[C@H](CN(C)S(=O)(=O)c2ccc(F)cc2)[C@@H](C)CN([C@H](C)CO)C(=O)c2cc(NC(=O)NC3CCCCC3)ccc2O1`, for which the cytotoxicity call was “inactive”.

Values taken from the antibiotic and cytotoxicity screens of Wong et al. (2023).
